Where a name gives a salt, the structure may show the parent alone. This is one part of the list. Rule as the data show it: active = -2 or less and inactive = the rest. Single values are uncertain, as repeats are few or missing.
Each molecule was assayed on hPSC-derived cortical neurons (WA09) (assay: nuclei number (viability) z-score; higher = more surviving cells). Conditions: 5 µM; treatment: days 7-14 after plating, readout day 21.
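Also: nuclei counted from DAPI counterstain by automated high-content image analysis, four fields per well at ×20 in 384-well plates, with sequential b-score then z-score normalization.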

Row | Compound | nuclei number (z-score)
1 | COc1ccc(S(=O)(=O)N(CCO)c2ccccc2CN(C)C/C=C/c2ccc(Cl)cc2)cc1 [KN-93 Phosphate] | inactive: -1.1
2 | O=C(Nc1ccccc1Br)N[C@@H]1CCN(c2ccc(C(F)(F)F)cn2)C1 | inactive: 0.0847
3 | CCN(CC)CCCC(C)Nc1nc(C)cc(Nc2ccc3nc(C)cc(N)c3c2)n1 (stereo unspecified) | inactive: -0.222
4 | O=C(c1ccccc1)c1ccc2n1CCC2C(=O)O (stereo unspecified) [Ketorolac] | inactive: -0.994
5 | COc1c(N2CCNC(C)C2)c(F)cc2c(=O)c(C(=O)O)cn(C3CC3)c12 (stereo unspecified) [Gatifloxacin] | inactive: 0.66
6 | C#CCC(Cc1cnc2nc(N)nc(N)c2n1)c1ccc(C(=O)N[C@@H](CCC(=O)O)C(=O)O)cc1 (stereo partly specified) [Pralatrexate] | inactive: 0.155
7 | O=C(C[S+]([O-])Cc1ccco1)NC/C=C\COc1cc(CN2CCCCC2)ccn1 (stereo unspecified) [Lafutidine] | inactive: -0.033
8 | CCC(=O)Nc1cccc(Oc2nc(Nc3ccc(N4CCN(C)CC4)cc3OC)ncc2Cl)c1 | inactive: 2.52
9 | N#Cc1c(NC(=O)c2cccc3ccccc23)sc2c1CCCC2 [JNK Inhibitor IX] | inactive: -0.197
10 | C=CC(=O)Nc1cccc(Nc2nc(Nc3ccc(OCCOC)cc3)ncc2F)c1 | inactive: -1.32
11 | COC(=O)Nc1nc2cc([S+]([O-])c3ccccc3)ccc2[nH]1 (stereo unspecified) [Oxfendazole] | inactive: 1.18
12 | CCc1c(Cl)c(O)c(Cl)c(O)c1C(=O)O[C@H]1[C@H](O)[C@H](OC)[C@H](OC/C2=C\C=C\C[C@H](O)/C(C)=C/[C@H](CC)[C@@H](O[C@@H]3OC(C)(C)[C@@H](OC(=O)C(C)C)[C@H](O)[C@@H]3O)/C(C)=C/C(C)=C/C[C@@H]([C@@H](C)O)OC2=O)O[C@@H]1C [Fidaxomicin] | inactive: 0.394
13 | Nc1ccn([C@@H]2CS[C@H](CO)O2)c(=O)n1 [Lamivudine] | inactive: 1.23
14 | O=C1NCCCc2c1oc1ccc(O)cc21 | inactive: 0.368
15 | COc1ccccc1OCC(O)COC(N)=O (stereo unspecified) [Methocarbamol] | inactive: -0.444
16 | CC(C)C[C@H](NC(=O)CNC(=O)c1cc(Cl)ccc1Cl)B1OC(=O)C(CC(=O)O)(CC(=O)O)O1 | active: -6.26
17 | NCCCC[C@H](NC(=O)[C@@H](NC(=O)[C@H](Cc1c[nH]c2ccccc12)NC(=O)[C@H](CCCCN)NC(=O)[C@H](CCCCN)NC(=O)[C@H](Cc1c[nH]c2ccccc12)NC(=O)[C@H](Cc1c[nH]c2ccccc12)NC(=O)[C@H](CCCCN)NC(=O)[C@@H](N)CCCCN)C(c1ccccc1)c1ccccc1)C(N)=O | inactive: -1.06
18 | CCN(CC)CCCCNc1ncc2cc(-c3cc(OC)cc(OC)c3)c(NC(=O)NC(C)(C)C)nc2n1 | inactive: -0.69
19 | C[C@]1(Cn2ccnn2)[C@H](C(=O)O)N2C(=O)C[C@H]2S1(=O)=O [Tazobactam] | inactive: -0.513
20 | CC[C@@H](CO)NCCN[C@@H](CC)CO [Ethambutol HCl] | inactive: 0.956
21 | CCCOc1ccc(C(=O)OCCN(CC)CC)cc1N [Proparacaine HCl] | inactive: 0.0262
22 | CCN(CC)CCOCCOC(=O)C(CC)(CC)c1ccccc1 [Oxeladin Citrate] | inactive: -1.87

Row | Compound | nuclei number (z-score)
23 | CC1(C)[C@@H](OC(=O)CCC(=O)O)CC[C@]2(C)[C@H]3C(=O)C=C4[C@@H]5C[C@@](C)(C(=O)O)CC[C@]5(C)CC[C@@]4(C)[C@]3(C)CC[C@@H]12 [Carbenoxolone Sodium] | inactive: 1.43
24 | C#C[C@]1(O)CC[C@H]2[C@@H]3CCC4=CC(=O)CC[C@@H]4[C@H]3CC[C@@]21CC [Levonorgestrel] | inactive: 4.29
25 | N#C/C(=C\c1ccc(O)c(O)c1)C(=O)NCc1ccccc1 [AG-490 (Tyrphostin B42)] | inactive: 1.73
26 | CC(=O)OCC(=O)[C@H]1CC[C@H]2[C@@H]3CCC4=CC(=O)CC[C@]4(C)[C@H]3CC[C@]12C [Deoxycorticosterone acetate] | inactive: 0.224
27 | Cn1cc(-c2ccc3c(c2)CCN3C(=O)Cc2cccc(C(F)(F)F)c2)c2c(N)ncnc21 | inactive: -0.312
28 | Oc1cccc(-c2nc(N3CCOCC3)c3oc4ncccc4c3n2)c1 | inactive: -0.512
29 | O=C(/C=C/c1ccc(O)c(O)c1)O[C@@H]1C[C@](O)(C(=O)O)C[C@@H](O)[C@H]1O [Chlorogenic Acid] | inactive: 0.364
30 | C[C@@H]1COC(Nc2ccc3ncnc(Nc4ccc(OCc5nccs5)c(Cl)c4)c3c2)=N1 [Varlitinib] | inactive: 0.39
31 | CN(C)CC/C=C1/c2ccccc2COc2ccc(CC(=O)O)cc21 [Olopatadine HCl] | inactive: 1.38
32 | CN(C)Cc1ccc(S(=O)(=O)n2ccc(/C=C/C(=O)NO)c2)cc1 [Resminostat] | inactive: -1.67
33 | Nc1ncnc2n[nH]c(Nc3ccc(F)cc3)c12 | inactive: 2.3
34 | CC[C@H](C)C[C@H](C)CCCCCCCCC(=O)N[C@H]1C[C@@H](O)[C@@H](NCCN)NC(=O)[C@@H]2[C@@H](O)CCN2C(=O)[C@H]([C@H](O)CCN)NC(=O)[C@H]([C@H](O)[C@@H](O)c2ccc(O)cc2)NC(=O)[C@@H]2C[C@@H](O)CN2C(=O)[C@H]([C@@H](C)O)NC1=O [Caspofungin Acetate] | inactive: -0.0611
35 | CCn1cc(NC(=S)Nc2cc(Cl)ccc2OC)c(C(N)=O)n1 | inactive: -0.647
36 | c1ccc(CN(CC2=NCCN2)c2ccccc2)cc1 [Antazoline HCl] | inactive: -0.762
37 | C[C@H](NC(=O)C(=O)Nc1ccccc1C(C)(C)C)C(=O)N[C@@H](CC(=O)O)C(=O)COc1c(F)c(F)cc(F)c1F [Emricasan] | inactive: 2.08
38 | C=CC(=O)Nc1cccc(Oc2nc(Nc3ccc(N4CCN(C)CC4)cc3)nc3ccsc23)c1 | active: -2.79
39 | Cc1ccc(-n2nc(C(C)(C)C)cc2NC(=O)Nc2ccc(OCCN3CCOCC3)c3ccccc23)cc1 [BIRB 796 (Doramapimod)] | inactive: -0.113
40 | CCCCCCCCCCCC[N+](C)(C)CCOc1ccccc1 [Domiphen Bromide] | active: -4.58
41 | Cc1cc(OCc2nnc(SC3CCCC3)n2-c2cccnc2)ccc1-c1ccc(S(C)(=O)=O)cc1 | inactive: -0.0749
42 | CNC(=O)c1ccc(C)c(-n2c(C)cc(OCc3ccc(F)cc3F)c(Br)c2=O)c1 | inactive: 1.84
43 | OC(CCCN1CCCCC1)(c1ccccc1)c1ccccc1 [Diphenidol HCl] | inactive: 0.139
44 | CCN(CC)CCOC(=O)C(c1ccccc1)c1ccccc1 [Adiphenine HCl] | inactive: 0.329

Row | Compound | nuclei number (z-score)
45 | CCCCCCCCCCCCc1ccc(S(=O)(=O)Nc2nncs2)cc1 | inactive: -0.788
46 | Oc1c(F)cc(-c2cnccc2-c2ccc(N3CCOCC3)cc2)cc1F | inactive: 2.88
47 | CCOC(=O)c1ccc(N)cc1 [Benzocaine] | inactive: 0.0766
48 | CCOC(=O)c1ccc(N)cc1 [Benzocaine hydrochloride] | inactive: 0.276
49 | C[C@H]1[C@H](C)CC[C@]2(C(=O)O)CC[C@]3(C)C(=CC[C@@H]4[C@@]5(C)C[C@@H](O)[C@H](O)[C@@](C)(CO)[C@@H]5CC[C@]43C)[C@H]12 [Asiatic Acid] | inactive: 0.281
50 | CC(C)(C)CC(C)(C)c1ccc(O)c(Cc2ccc(Cl)cc2Cl)c1 [Clofoctol] | inactive: -0.98
51 | CN1CCN(c2c(F)cc3c(=O)c(C(=O)O)cn4c3c2OCN4C)CC1 [Marbofloxacin] | inactive: 1
52 | COC(=O)c1ccc([C@H]2c3[nH]c4ccccc4c3C[C@H](C(=O)OC)N2C(=O)CCl)cc1 | active: -4.09
53 | Cc1ccc(S(=O)(=O)NC(=O)NN2CCCCCC2)cc1 [Tolazamide] | inactive: 2.27
54 | C=CC(C)(C)c1cc(/C=C/C(=O)c2ccc(O)cc2)c(OC)cc1O [Licochalcone A] | inactive: -0.228
55 | Cc1ncc(Cl)cc1NCc1ccc(C(=O)N[C@@H](CC2CCCC2)C(=O)NC2CC2)s1 | inactive: 0.319
56 | C[N+](C)(C)CCOC(=O)CCC(=O)OCC[N+](C)(C)C [Succinylcholine Chloride Dihydrate] | inactive: 0.302
57 | O=C(CCCCCCC(=O)Nc1ccc([C@H]2O[C@@H](CSc3nc(-c4ccccc4)c(-c4ccccc4)o3)C[C@@H](c3ccc(CO)cc3)O2)cc1)NO [Tubacin] | inactive: -0.687
58 | COc1cc(C(C)=O)ccc1O [Apocynin] | inactive: 0.595
59 | CN(C)c1ccc(O)c2c1C[C@H]1C[C@H]3[C@H](N(C)C)C(O)=C(C(N)=O)C(=O)[C@@]3(O)C(O)=C1C2=O [Minocycline HCl] | inactive: 0.803
60 | CCCCCCCCCCCCCCCCOP(=O)([O-])OCC[N+](C)(C)C [Miltefosine] | inactive: -0.523
61 | CN(Cc1cnc2nc(N)nc(N)c2n1)c1ccc(C(=O)N[C@@H](CCC(=O)O)C(=O)O)cc1 [Methotrexate] | inactive: 0.218
62 | CCOc1ccc2nc3cc(N)ccc3c(N)c2c1 [Ethacridine lactate monohydrate] | active: -5.13
63 | Nc1cc(F)ccc1NC(=O)/C=C/c1cnn(C/C=C/c2ccccc2)c1 | inactive: -0.569
64 | Nc1nc(NC2CC2)c2ncn([C@H]3C=C[C@@H](CO)C3)c2n1 [Abacavir sulfate] | inactive: 1.69
65 | NC(N)=Nc1nc(CSCC/C(N)=N/S(N)(=O)=O)cs1 [Famotidine] | inactive: -0.797
66 | CSc1ccc2c(c1)N(CCC1CCCCN1C)c1ccccc1S2 (stereo unspecified) [Thioridazine HCl] | active: -2.47

From the supplement of paper PMC11348887
